According to patent publication US20100075953A1, “SUBSTITUTED PIPERAZINES, (1,4) DIAZEPINES, AND 2,5-DIAZABICYCLO (2.2.1) HEPTANES AS HISTAMINE H1 AND/OR H3 ANTAGONISTS OR HISTAMINE H3 REVERSE ANTAGONISTS” (Glaxo Group Limited, priority 2002, published 2010):
Some of these results come from one statement about several compounds together.

Target: histamine H3 receptor (Homo sapiens, UniProt Q9Y5N1)
Assay: Histamine H3 functional antagonist assay
Conditions: membranes of CHO K1 cells expressing human H3, [35S]GTPgammaS SPA, histamine 0.3 μM

histamine H3 receptor, sequence (Q9Y5N1 whole entry): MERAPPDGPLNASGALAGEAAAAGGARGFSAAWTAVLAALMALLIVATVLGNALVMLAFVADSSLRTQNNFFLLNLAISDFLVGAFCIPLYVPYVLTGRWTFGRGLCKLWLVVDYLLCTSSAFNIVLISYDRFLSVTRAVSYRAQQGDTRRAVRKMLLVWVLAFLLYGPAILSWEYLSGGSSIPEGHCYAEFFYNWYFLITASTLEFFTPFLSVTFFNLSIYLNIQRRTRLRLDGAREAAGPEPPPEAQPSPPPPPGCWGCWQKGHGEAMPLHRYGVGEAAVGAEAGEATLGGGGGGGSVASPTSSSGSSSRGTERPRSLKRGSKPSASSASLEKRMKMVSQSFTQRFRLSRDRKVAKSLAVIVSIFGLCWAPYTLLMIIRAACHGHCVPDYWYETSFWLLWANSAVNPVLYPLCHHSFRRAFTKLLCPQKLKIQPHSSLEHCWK

Structure (SMILES): N#Cc1cccc(C(=O)N2CCCN(c3ccc(OCCCN4CCCCC4)cc3)CC2)c1 [Example E450, 3-(1-{4-[4-(3-Piperidin-1-yl-propoxy)-phenyl]-[1,4]diazepan-1-yl}-methanoyl)-benzonitrile]
- antagonism in the histamine H3 functional antagonist assay (pKb): > 6.5 pKb

Structure (SMILES): CC(C)N1CCC(Oc2ccc(N3CCN(C(=O)C4CCOCC4)CC3)cc2)CC1 [Example E263, 1-(4-{[1-(1-Methylethyl)-4-piperidinyl]oxy}phenyl)-4-(tetrahydro-2H-pyran-4-ylcarbonyl)piperazine]
- antagonism in the histamine H3 functional antagonist assay (pKb): > 6.5 pKb

Structure (SMILES): O=C(c1cccc2c1OCC2)N1CCN(c2ccc(OCCCN3CCCCC3)cc2)CC1 [Example E409, 1-(2,3-Dihydro-1-benzofuran-7-ylcarbonyl)-4-(4-{[3-(1-piperidinyl)propyl]oxy}phenyl)piperazine]
- antagonism in the histamine H3 functional antagonist assay (pKb): > 6.5 pKb

Structure (SMILES): O=C(c1ccccc1)N1CCN(Cc2ccc(OCCCN3CCCCC3)cc2)CC1 [Example E1, 1-Phenyl-1-{4-[4-(3-piperidin-1-yl-propoxy)-benzyl]-piperazin-1-yl}-methanone]
- antagonism in the histamine H3 functional antagonist assay (pKb): > 8.4 pKb
- antagonism in the histamine H3 functional antagonist assay (pKb) (listed as Example E1): > 6.5 pKb

Structure (SMILES): COc1ccccc1C(=O)N1CCCN(Cc2ccc(OCCCN3CCCCC3)cc2)CC1 [Example E17, 1-(2-Methoxy-phenyl)-1-{4-[4-(3-piperidin-1-yl-propoxy)-benzyl]-[1,4]diazepan-1-yl}-methanone]
- antagonism in the histamine H3 functional antagonist assay (pKb): > 8.4 pKb
- antagonism in the histamine H3 functional antagonist assay (pKb) (listed as Example E17): > 6.5 pKb

Structure (SMILES): O=C(c1cccc2nccnc12)N1CCN(c2ccc(OCCCN3CCCCC3)cc2)CC1 [Example E385, 5-{[4-(4-{[3-(1-Piperidinyl)propyl]oxy}phenyl)-1-piperazinyl]carbonyl}quinoxaline]
- antagonism in the histamine H3 functional antagonist assay (pKb): > 6.5 pKb

Structure (SMILES): C[C@@H]1CN(c2ccc(OCCCN3CCCCC3)cc2)[C@H](C)CN1C(=O)C1CCOCC1 [Example E458, 1-{(2R,5R)-2,5-Dimethyl-4-[4-(3-piperidin-1-yl-propoxy)-phenyl]-piperazin-1-yl}-1-(tetrahydro-pyran-4-yl)-methanone]
- antagonism in the histamine H3 functional antagonist assay (pKb): > 8.4 pKb
- antagonism in the histamine H3 functional antagonist assay (pKb) (listed as Example 458): > 6.5 pKb

Structure (SMILES): O=C(c1ccon1)N1CCN(c2ccc(OCCCN3CCCCC3)cc2)CC1 [Example E404, 1-(3-Isoxazolylcarbonyl)-4-(4-{[3-(1-piperidinyl)propyl]oxy}phenyl)piperazine]
- antagonism in the histamine H3 functional antagonist assay (pKb): > 6.5 pKb

Structure (SMILES): O=C(c1ccccn1)N1CCN(c2ccc(OCCCN3CCCCC3)cc2)CC1 [Example E347, 1-(4-{[3-(1-Piperidinyl)propyl]oxy}phenyl)-4-(2-pyridinylcarbonyl)piperazine]
- antagonism in the histamine H3 functional antagonist assay (pKb): > 8.4 pKb
- antagonism in the histamine H3 functional antagonist assay (pKb) (listed as Example 347): > 6.5 pKb

Structure (SMILES): CS(=O)(=O)CC(=O)N1CCN(c2ccc(OCCCN3CCCCC3)cc2)CC1 [Example E387, 1-[(Methylsulfonyl)acetyl]-4-(4-{[3-(1-piperidinyl)propyl]oxy}phenyl)piperazine]
- antagonism in the histamine H3 functional antagonist assay (pKb): > 6.5 pKb

Structure (SMILES): COc1cc(OC)cc(C(=O)N2CCN(c3ccc(OCCCN4CCCCC4)cc3)CC2)c1 [Example E412, 1-{[3,5-bis(Methyloxy)phenyl]carbonyl}-4-(4-{[3-(1-piperidinyl)propyl]oxy}phenyl)piperazine]
- antagonism in the histamine H3 functional antagonist assay (pKb): > 6.5 pKb

Structure (SMILES): CC(C)CC(=O)N1CCN(c2ccc(OCCCN3CCCCC3)cc2)CC1 [Example E363, 1-(3-Methylbutanoyl)-4-(4-{[3-(1-piperidinyl)propyl]oxy}phenyl)piperazine]
- antagonism in the histamine H3 functional antagonist assay (pKb): > 8.4 pKb
- antagonism in the histamine H3 functional antagonist assay (pKb) (listed as Example 363): > 6.5 pKb
